Measurements from PubChem BioAssay AID1345083 (National Center for Advancing Translational Sciences (NCATS), 2018).
About 6,200 (6.6%) of roughly 94,000 compounds were called active. The shares of active, inactive and inconclusive entries below differ from those in the screen. Calls follow the shape of the dose curve; as a rule, active = well fitted inhibition curve with a large enough effect; inconclusive = small, poorly fitted or top-dose-only effect; inactive = flat fitted curve, though single readings scatter. Where the call is inconclusive, the potency comes from a doubtful curve fit.

Experiment: Cytotoxic Profiling in HEK 293 Cell Line of Diverse Libraries Using Quantitative High-Throughput Screening; also: nearly all actives have a fitted effect of over 60% in size
Conditions: HEK 293 viability, ATP luminescence (CellTiter-Glo), 48-72 h; activity change, negative = cytotoxicity: at 115 µM (top of the series) unless noted; series mostly up to 115 µM
In short: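 250 HEK 293 cells/well; compound by pintool; incubated 48 or 72 hr at 37 degree Celsius; CellTiter-Glo added, 10 min RT, luminescence imaged.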
% is scaled to controls: 0 for no effect and ±100 for the full control effect; potency is read from the fitted curve at half-maximal effect; tags tell the direction and shape of the fitted curve.

| Compound | Potency | activity change, negative = cytotoxicity | outcome |
| --- | --- | --- | --- |
| COc1ccccc1C(=O)N1CCC(N2C(=O)c3c(c(C)nn3-c3ccccc3)C2C)C1 (stereo not drawn) | active: 44.7 µM |  |  |
| CCn1c(=O)c2ccnn2c2ccc(C(=O)NCCc3cccnc3)cc21 | inconclusive: 35.5 µM [inhibitor, partial curve, poor fit] |  |  |
| O=C(Nc1ccccn1)C1CC(=O)N(c2n[nH]c3ccccc23)C1 (stereo not drawn) | inconclusive: 100 µM [inhibitor, partial curve, poor fit] |  |  |
| CNC(=O)[C@@H]1CN(C(=O)c2ccc3cc[nH]c3c2)C[C@H]1C1CCN(C)CC1 |  | inactive: -5.3% |  |
| Cc1nc2c(c(-c3ccc(Cl)cc3)n1)CCN(C(=O)c1ccccc1F)CC2 | inconclusive: 79.4 µM [inhibitor, partial curve, poor fit] |  |  |
| O=C(NC1CCCN(Cc2ccc(-c3cncnc3)cc2)C1)C1CCCC1 (stereo not drawn) | inconclusive: 89.1 µM [inhibitor, partial curve, poor fit] |  |  |
| COc1ccc(-c2noc(-c3nnn4c3COC(c3ccc(F)cc3)C4)n2)c(OC)c1 (stereo not drawn) |  | inactive: -0.522% |  |
| COc1ccc(CN2C(=O)O[C@@H]3CN(c4ccnc(SC)n4)C[C@@H]32)cc1OC | inconclusive: 39.8 µM [inhibitor, full curve, poor fit] |  |  |
| COC(=O)[C@@H]1Cc2c([nH]c3ccccc23)[C@H]2C[C@@H](N3CCCCC3)C[C@@H](c3ccccc3F)N21 | active: 22.4 µM |  |  |
| COc1ccc(CC(=O)N(C)C2CCc3ccccc3C2)cc1 (stereo not drawn) | inconclusive: 31.6 µM [inhibitor, partial curve, poor fit] |  |  |
| Cc1ccc(CN2CCOc3ccc(C(=O)NCc4ccccc4F)cc3C2)o1 | inconclusive: 79.4 µM [inhibitor, partial curve, poor fit] |  |  |
| CCOC(=O)C1(Cc2ccccc2Cl)CCN(C(=O)c2ccsc2)CC1 | active: 79.4 µM |  |  |
| CN(C)c1cccc(-c2cnc(Nc3ccc(N4CCOCC4)cc3)c3c2CCO3)c1 | active: 22.4 µM |  |  |
| CCN1CCCC12Cc1ccccc1CN([S+](=O)([O-])c1ccccc1)C2 (stereo not drawn) | inconclusive: 79.4 µM [inhibitor, partial curve, poor fit] |  |  |
| COc1ncccc1-c1cc2c(ccn2CC2CCN(C)CC2)c(N2CCOCC2)n1 | active: 89.1 µM |  |  |
| O=C(NCCCc1ccccc1)c1nc2sccn2c1-c1cccnc1 | inconclusive: 79.4 µM [inhibitor, partial curve, poor fit] |  |  |
| O=C(Nc1ccccc1)Nc1ccc([C@@H](O)[C@H]2COCC(=O)N2Cc2cccnc2)cc1 |  |  | inactive [at 172 µM] |
| OC[C@@H]1CN(Cc2cccc(F)c2)C[C@H]1c1nc(-c2ccncc2)no1 | active: 44.7 µM |  |  |
| CC1CCc2nn3ccn(CC(=O)Nc4ccccc4)c(=O)c3c2C1 (stereo not drawn) |  | inactive: -20.6% |  |
| COc1ccc(-c2nc(C3CC3)nc3c2CCN(CCC(C)C)CC3)cc1 | inconclusive: 79.4 µM [inhibitor, single point] |  |  |
| O=C(Nc1cccc(Cl)c1)C1=NO[C@@H]2CN(CCc3ccccc3)C[C@H]12 | inconclusive: 89.1 µM [inhibitor, partial curve, poor fit] |  |  |

| Compound | Potency | activity change, negative = cytotoxicity | outcome |
| --- | --- | --- | --- |
| N#Cc1cccc(-c2cn3cc(C(=O)NCCc4ccc(Cl)cc4)nc3s2)c1 | inconclusive: 89.1 µM [inhibitor, single point] |  |  |
| COc1ccc2[nH]c3c(c2c1)CCNC31CCN(C(=O)c2cnccc2C)CC1 | inconclusive: 44.7 µM [inhibitor, partial curve, poor fit] |  |  |
| COCCNC(=O)c1cn2cc(-c3ccc(F)cc3)sc2n1 | inconclusive: 112 µM [inhibitor, partial curve, poor fit] |  |  |
| COCCN1C(=O)[C@@H]2C[C@@H](CN2C(=O)C2CC2)Oc2ccccc21 |  | inactive: -10.4% [at 172 µM] |  |
| CCCC(=O)NCCc1noc(-c2ccccc2)n1 |  | inactive: -1.92% |  |
| O=C(NCc1cccc(C(F)(F)F)c1)C1CCCN(Cc2cccc(-c3ccc(F)cc3F)c2)C1 (stereo not drawn) | active: 35.5 µM |  |  |
| O=C(c1ccccn1)N1CCC(c2cc(-c3ccc(F)cc3)n[nH]2)CC1 | inconclusive: 50.1 µM [inhibitor, partial curve, poor fit] |  |  |
| Cn1nc(C2CCN(C(=O)c3ccccc3F)CC2)[nH]c1=O |  | inactive: -0.341% [at 172 µM] |  |
| COc1ccc(C(=O)N2CCCC(C(=O)NCc3ccccc3)CCNC(=O)CC2)cc1F (stereo not drawn) | inconclusive: 89.1 µM [inhibitor, single point] |  |  |
| O=C(c1ccco1)N1CCC(N2CCCC(C(=O)N3CCCC3)C2)CC1 (stereo not drawn) |  |  | inactive |
| COc1ccccc1CN1CCNc2cnc(Nc3ccccc3)cc2C1 | active: 89.1 µM |  |  |
| O=C(c1cc(-c2ccccn2)n[nH]1)N1C[C@@H](CN2CCCCC2)[C@@H](CO)C1 |  |  | inactive |
| COc1ccccc1C(=O)Nc1cc(-c2ccncc2)nn1-c1ccccc1 | inconclusive: 15.8 µM [inhibitor, full curve, poor fit] |  |  |
| COc1ccc(F)cc1S(=O)(=O)N1CCC(n2cnnc2C)CC1 |  | inactive: 2.36% |  |
| CCOc1ncccc1C(=O)N1CCc2onc(-c3ccccc3F)c2C1 | inconclusive: 50.1 µM [inhibitor, partial curve, poor fit] |  |  |
| COc1ccc(S(=O)(=O)N2CCCC(Cc3noc(-c4cccnc4)n3)C2)cc1 (stereo not drawn) | inconclusive: 89.1 µM [inhibitor, single point] |  |  |
| CC(=O)N[C@H]1CC[C@]2(C)CC[C@@H](C(C)C(=O)NC3CCCCC3)[C@H](O)[C@H]2[C@@H]1C (stereo partly drawn) |  | inactive: 4.03% [at 172 µM] |  |
| COc1ccc(CN2C=C(C(=O)OCc3nc(C4CC4)no3)C(C)=NS2(=O)=O)cc1 | inconclusive: 50.1 µM [inhibitor, partial curve, poor fit] |  |  |
| CC(C)CC(=O)N1CCCN(Cc2ccc3c(c2)OCO3)c2ccccc21 | inconclusive: 50.1 µM [inhibitor, partial curve, poor fit] |  |  |
| O=C(COc1ccccc1)N1CCC2(CCC(=O)N(Cc3ccccc3)CC2)CC1 | inconclusive: 79.4 µM [inhibitor, partial curve, poor fit] |  |  |
| CC(C)c1nc(C(=O)N2CCc3onc(-c4ccccc4F)c3C2)cs1 | inconclusive: 20 µM [inhibitor, full curve, poor fit] |  |  |

| Compound | Potency | activity change, negative = cytotoxicity | outcome |
| --- | --- | --- | --- |
| CC1Oc2ccc(NS(=O)(=O)c3ccc(Cl)cc3)cc2CN(Cc2ccccc2F)C1=O (stereo not drawn) | inconclusive: 44.7 µM [inhibitor, partial curve, poor fit] |  |  |
| CCc1nc2c(NC(=O)c3ccc(F)c(Cl)c3)cccn2n1 | inconclusive: 63.1 µM [inhibitor, partial curve, poor fit] |  |  |
| COc1ccc(C)cc1-c1cn(C)c(=O)n2cc(COc3ccccc3)nc12 | inconclusive: 50.1 µM [inhibitor, full curve] |  |  |
| COc1cc(SC)ccc1C(=O)N[C@H]1CCN2C(=O)N(c3ccc(OC(F)(F)F)cc3)C(=O)[C@@H]2C1 | inconclusive: 50.1 µM [inhibitor, partial curve, poor fit] |  |  |
| Cc1nn(-c2ccccc2)c2c1C(C)N(C1CCCN([S+](=O)([O-])c3c(C)noc3C)C1)C2=O (stereo not drawn) | inconclusive: 25.1 µM [inhibitor, full curve] |  |  |
| Cc1ccsc1C(=O)N1CCC2(CC1)NC(=O)N(c1cccc(F)c1)N2 | inconclusive: 25.1 µM [inhibitor, full curve] |  |  |
| COCCCn1c(=O)c(C(=O)N2CCN(C(=O)c3ccccc3OC)CC2)nc2cccnc21 |  | inactive: -7.05% |  |
| Cc1oc2ccn(Cc3ccccc3F)c(=O)c2c1C(=O)NCC1CCCO1 (stereo not drawn) | inconclusive: 44.7 µM [inhibitor, partial curve, poor fit] |  |  |
| Cc1ccc(-c2nnc(C3CN(C(=O)C4CCCCCC4)CC34CCOCC4)o2)cc1 (stereo not drawn) | inconclusive: 56.2 µM [inhibitor, partial curve, poor fit] |  |  |
| O=C1c2c(nc(CNC3CCOCC3)n2Cc2ccccc2)NCCN1CC1CC1 | inconclusive: 126 µM [inhibitor, single point] |  |  |
| CC(=O)NCC(=O)N1CCC(N2C(=O)C(OCC3CC3)C23CCCCC3)CC1 (stereo not drawn) |  | inactive: 2.58% |  |
| COc1ccc2[nH]c3c(c2c1)CCNC31CCN(S(=O)(=O)c2cccnc2)CC1 | active: 25.1 µM |  |  |
| O=C1CCN(S(=O)(=O)c2ccccc2)CCCN(C(=O)c2ccoc2)CCN1 | inconclusive: 89.1 µM [inhibitor, single point] |  |  |
| O=C(c1cccc(Cl)c1)N1CCC2(CC1)CC(Cc1ccccc1)=NO2 | inconclusive: 89.1 µM [inhibitor, partial curve, poor fit] |  |  |
| COc1ccc(-c2cnc3[nH]cc(CC(=O)NCc4cccnc4)c3c2)cn1 | inconclusive: 89.1 µM [inhibitor, partial curve] |  |  |
| O=C1NC2(CCN(Cc3ccccc3)C2)Oc2ccccc21 (stereo not drawn) | inconclusive: 126 µM [inhibitor, single point] |  |  |
| COc1cccc(OCc2nc(C(=O)N3CC4C[C@@H]5CC3C[C@H](C4)C5)co2)c1 | inconclusive: 50.1 µM [inhibitor, partial curve, poor fit] |  |  |
| O=C(NC1CCCCC1)C1CCCN(Cc2cccc(-c3cccs3)c2)C1 (stereo not drawn) | inconclusive: 50.1 µM [inhibitor, partial curve, poor fit] |  |  |
| COc1ccc2c(c1)OCC(CNC(=O)c1noc3c1CCCC3)C2 (stereo not drawn) | inconclusive: 100 µM [inhibitor, single point] |  |  |
| Cc1ccc(-c2cn3cc(C(=O)N4CCOCC4)nc3s2)cc1 | inconclusive: 89.1 µM [inhibitor, partial curve, poor fit] |  |  |
| COc1cccc(-c2cc3c(=O)n(CCNC(=O)COc4cccc(C)c4)ccn3n2)c1 | inconclusive: 22.4 µM [inhibitor, full curve] |  |  |
